The other results are listed elsewhere or left out.
test system: PF3D7_0420300 AP2 domain 1 (GST-tagged); test: gcPBM binding intensity (ln(normalized median fluorescence intensity)); higher = stronger DNA binding
Outline: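 After 1 h on an Agilent 4 × 180k array of primer-extended double-stranded 36-bp intergenic genomic probes and negative controls, bound GST-tagged P. falciparum DNA-binding domains were detected with Alexa488 anti-GST antibody and scanned at 488 nm. The domains had been expressed in E. coli, and binding took place in 1× PBS with 1% milk, 0.2 mg/ml BSA, 0.5% salmon testes DNA and 0.03% Triton X-100. Binding intensity is the highest Masliner-normalised natural-log median intensity across replicate spots of either probe orientation.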

Sequence	gcPBM binding intensity (ln)
CGTTACACAAAAATATGTACATATATACATATATAT [XGTACX_site4631]	9.25
TATAAATATAAATACTGTACATTATATTATATAATA [XGTACX_site2480]	9.1
TATTCCCCCAAACACACACACACACCCACATACCAC [CACACA_site2304]	10.3
TAAAAATAATATTAATGTACATTACATATTAATATA [XGTACX_site1019]	9.01
AATGCGCATTTTTTTTTTTTTTTTTTTTTTTTTTTT [XGTACX_negctrl_site258]	9.32
ATATATATATATATGTGTACATATTAGTGATATAAT [XGTACX_site7161]	9.46
ATCATTTAAACAATATGTACTCATTGTAGATATGGT [XGTACX_site5088]	9.21
TGAATAAAATATTATACACACATATGTATTTAACAT [CACACA_site4694]	9.4
TTGTATTTACTATACACACACATACATACATACATA [CACACA_site4603]	9.83
AATGGGATCATGGTATGTACTTACACAAATGAATTA [XGTACX_site5389]	9.19
TAATATTGACTATATACACACATATAAATATAAATA [CACACA_site6414]	9.57
TATATATATATATATACATGCATCATTGTTCACCTT [TGCATGCA_site177]	9.5
AAAAAAAAAAAAAAAAGTACATATGCTCAAGAGATG [XGTACX_site3783]	9.23
TTTTTTTTTTAATTAACACACATAAATATAAATATA [CACACA_site7527]	9.11
CATTCAAAGAAAAACAGTACGTGTAGCAAAAGGCCT [XGTACX_site266]	9.45
TAAATAATATAATTATGTACGTATTTCTTTATTTTA [XGTACX_site8410]	9.21
GCTGAAAATAAATGAAGTACACAAGTAATATATATA [XGTACX_site6205]	9.36
ATAAAGCCATACAATACACACATTTTACATGTCGGT [CACACA_site3265]	9.66
ATTCTATATGTTACATAAACCTATATTTTTTTTTTT [CACACA_negctrl_site860]	9.31
TAAGCCACCATATTTACACACACATCAAAATGTATT [CACACA_site1815]	9.77
GAAAAAAGAAATTTATGTACATACATATATATATAT [XGTACX_site7888]	9.03
ATATGTAAAATATGGGGTACGAAGGTAGGTAGGTAA [XGTACX_site1392]	9.88
ATAAATACTAAAAATGAAATATAGAAAATAGCAATA [CACACA_negctrl_site501]	9.61

Sequence	gcPBM binding intensity (ln)
GTTAATTCTATGAATTGTACTTAAATATAATTATAT [XGTACX_site2785]	9.09
CAAAATAAAAATAACACACACATTTATATAAATACA [CACACA_site4790]	9.9
ACAGTTAAAACAATAACACACAAAGAAAAAAAAAAA [CACACA_site737]	9.6
TATAATATATTATATACACACATTATAAAATACCCA [CACACA_site4858]	9.69
AGGTAGAAATTGTTAAAAAATCATACATATTATATA [CACACA_negctrl_site622]	9.09
TATATTTTTATTGAACGTACAAAAAGTCGAAAACAG [XGTACX_site3967]	9
TTTAAATACAGACATACACACATACACGCACATATA [CACACA_site6400]	9.85
TCTTATAAAGGTAATTGTACATATTTATAATTTCTT [XGTACX_site4847]	9.13
GTGAAAGGAAAAGTTGAACACACAAAGTAAACTATA [CACACA_site9178]	9.56
AATAATATTTAATACGCACACAATAATAATATAAAA [CACACA_site1763]	9.51
CACACGCACGAACACACACACATATAAATATAAATA [CACACA_site6299]	9.92
ATATATTATTATACATGTACATATATAGATATATAT [XGTACX_site4358]	9.3
ATATACATATAGGATGCACACATAATTCAAATACAA [CACACA_site8120]	9.6
AACAATAATTTTGAATGTACATATAAATATTTTTAT [XGTACX_site5501]	9.13
TATAATGGTTCTGGTGTGCACCATGACAGAATCAAG	9.09
AAAAAAAAGAATAGCACACACACATATATAAATATA [CACACA_site630]	10.1
TTATTTTTTAATTATATTCAAAATTAAAAAAAAAAA [XGTACX_negctrl_site226]	8.34
ATTAAAAAAAAAAAAAAAAAAAAAAAAAAAAAAAAA [CACACA_negctrl_site1060]	8.56
ATTGATAAATTAACTAGTACACATATAAATATATTA [XGTACX_site2325]	9.12
AATATAAATGTGATTACACACAACAGATTTAAATGG [CACACA_site4802]	9.53
TATATGTATCCATTATGTACATAATAGTAATATAAT [XGTACX_site4008]	9.18
TATATTTATTTTCTGTGTACACATATGTTGTGTATT [XGTACX_site7640]	9.62
AAAACCTAGTGCATTTGTACATATTTCAATTTTAAA [XGTACX_site4582]	9.04

Sequence	gcPBM binding intensity (ln)
TAAAAAATACAAGAGTGTACAAAATTTTTCTAAATG [XGTACX_site5334]	9.06
TATACGTGTTTTATTTGTACTTAAGCAGGTAAGCAT [XGTACX_site193]	9.15
CTATATATTTTTTCTTAACACACATATATAAAATAA [CACACA_site9165]	9.26
GTAATTTTTTTCTATACACACATATATATAATATAT [CACACA_site2655]	9.58
AATATAAATATAAATATAAATAAATAAATAAATAAA [CACACA_negctrl_site291]	9.27
AAAGTAAAAGGGTTTGGTACACATATAATATATTAG [XGTACX_site6036]	9.52
CATTTATATAAAGAATGTACACACAGAAATGCACAC [XGTACX_site4718]	9.76
AGTAAAAGAAAGCACACACACATGTATTTATGTATG [CACACA_site5998]	9.96
ATAACTTTTATTTGTACACACATACATCTATATTAT [CACACA_site6595]	9.83
TAGTATTTATATGATTAACACACATATGGGTATTAA [CACACA_site8363]	9.28
CATAATAGTTATAAAATACACACCAGGCATGATAAA [CACACA_site329]	9.41
AAAAAAAAAAAAAAAAGTACTCAATAATAATTACAT [XGTACX_site670]	9.14
ATAATGTTCACATAGGTGCACTAATATAATTATCCA [GTGCAC_site9981]	9.18
ATATACACCTGAGAGGTGCATATATATAAAATTTAC	9.06
AATGTAGTTTATCGATGTACACAAAATAAAGAGAAG [XGTACX_site6956]	9.42
CCGTACAATTTTGTCACACATAAAATACTTATGTAT [CACACA_site4871]	9.16
TGCATATACTCAAGCACACATATATATATATATATA [CACACA_site4733]	9.27
AATTAATGGTTAAAGGTGCACAATACATATATTACA [GTGCAC_site9943]	9.58
ATATTAAACAAACACACACACATATATATATATATA [CACACA_site3383]	9.9
ATATATTGAAAATATAGTACATAATAAATGTTCTTT [XGTACX_site8474]	9.05
TTTTTTTTTTTTTTTTTTTTTTTTTTTTTTTGGGGG [CACACA_negctrl_site1570]	9.7
AATAAATTTAAACACACACACACATATATATATATA [CACACA_site4621]	9.99
TATATACATAAACACACACACACATATATATATATA [CACACA_site8707]	10.1

Sequence	gcPBM binding intensity (ln)
AAAAAAAAAAAAAAATGTACATATATATATATATTA [XGTACX_site7330]	8.98
CCTTGTCTTTTTTTTTTTTTTTTTTCTTCTTATTTT [GTGCAC_negctrl_site523]	9.68
ATAAAATAAGACAAAAAAAAAATATATATATATATA [TGCATGCA_negctrl_site314]	9.17
AGTAGATATAATATATGTACATATATATATATATAT [XGTACX_site7186]	9.14
ATATTAAGAATAAACAGTACATATAATAAATACCAT [XGTACX_site5933]	9.67
AAAAAAAAAAAAATTACACACATACATATAATAATA [CACACA_site8680]	9.66
TTTGTGTATATATAATGTACATTATATTTTTATTAT [XGTACX_site6506]	9.43
TATAAATTTATAAATAGTACATATATTTATATATAT [XGTACX_site6433]	9.07
ATTAAAAAAAAAGAGCGTACAAATAATTACTTCTTT [XGTACX_site8262]	9.09
AAAAAAAATATACATACATGCATACATAAGTTTCTA [TGCATGCA_site998]	9.15
TATATATATGGACACACACACACATATATATATATA [CACACA_site6121]	10
ATATTACATAATATATGTACACACGCAAATACTTAT [XGTACX_site671]	9.48
CAGATAGACTTATATGCATGCATTCACCTGCCAACA [TGCATGCA_site158]	9.06
TAAGCATAAATGTATACATGCGATGCATACACATAT [TGCATGCA_site749]	9.05
ATGAAATTATATTGGGGTACGTCAAAAAAGGAGATA [XGTACX_site7451]	9.44
GGGTATATATTATTATGTACACATGTATAAAATAAG [XGTACX_site2633]	9.24
ATGTGCAAATATTAAAGTACTAAATTTTATTATTTT [XGTACX_site7306]	9.18
ATAAATACATATAAAAGTACACACACACACATATAT [XGTACX_site1744]	10.4
TGAAATTTCAATACATGTACATATAAAAAAAAAAAA [XGTACX_site4424]	9.13
TGTATATGTGAAGCAAGGGATGCGGCAGACATAACA [CACACA_negctrl_site1339]	9.59

From the supplement of paper PMC11417369
